Laboratory results published in PubChem BioAssay AID1508623 (National Center for Advancing Translational Sciences (NCATS), 2021).
The whole screen tested about 48,000 compounds, of which about 450 (0.94%) were called active. Not shown: some 19% with an inconclusive outcome. Calls come from the whole dose curve; as a rule, active = well fitted inhibition curve with a large enough effect; inconclusive = small, poorly fitted or top-dose-only effect; inactive = no such curve, though single readings can be large or run the other way. The list shows a part of the results.

Experiment: Primary qHTS for Identification of Small Molecule Inhibitors of Huntingtin Promoter Activity; note: nearly all actives have a fitted effect of over 50% in size
Conditions: HEK293 HTT promoter firefly luciferase reporter (activity 0% = vehicle and -100% = no light), 24 h; series mostly up to 57.5 µM; activity change, negative = inhibition: at the top concentration
In short: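 HEK293 cells carrying firefly luciferase reporters were seeded at 2,500 per well in Opti-MEM and cultured for 24 h. They were then treated with compounds at up to 57.5 uM final for 24 h at 37 degrees C before Dual-Glo luminescence readout.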

Activity change, negative = inhibition, inactive:
Cc1cccc(C)c1Nc1c(-c2ccc(N3CCOCC3)cc2)nc2ncccn12 -14.9%
CNC(=O)c1c(NC(=O)c2cc(=O)c3cc(C)c(C)cc3o2)sc2c1CCCC2 -13.7%
CCN(CC)CCN(C(=O)c1ccco1)c1nc2c(C)c(C)ccc2s1 2.27%
COc1ccccc1CNC(=O)Cn1c(-c2ccc(F)cc2)cc(C(C)=O)c1C -13.7%
CC(=O)Nc1ccc(NC(=O)CN2C(=O)CC(c3ccco3)Sc3ccccc32)cc1 (stereo unspecified) -13.1%
Cc1ccc(-c2cc(C(F)(F)F)n3nc(-c4cccc(Br)c4)cc3n2)cc1 -11.2%
COc1ccc(N2CCN(C(=O)CN3CCSc4ccccc43)CC2)cc1 -31.7%
CC1(C)OC2CC3C4CC(F)C5=CC(=O)C=CC5(C)C4C(O)CC3(C)[C@]2(C(=O)CO)O1 (stereo partly specified) 1.24%
CCCCNC(=O)CC1Nc2cc(C)c(C)cc2NC1=O (stereo unspecified) 10.5%
COc1ccccc1NC(=O)c1nn(C)c2c1CS(=O)(=O)c1ccccc1-2 -4.2%
COc1ccc(Cl)cc1NC(=O)Nc1c[nH]c(=O)[nH]c1=O 9.83%
Cc1c(Cl)cccc1N1CCn2c1nc1c2c(=O)n(CC(=O)O)c(=O)n1C -2.84%
O=C(O)C1CCCN(CCC=C(c2ccccc2)c2ccccc2)C1 (stereo unspecified) -0.978%
O=C(NCCc1ccc(Cl)cc1)c1nnc(Cc2ccc(F)cc2)o1 -14.3%
O=C(CCSCc1ccc(Cl)cc1)NCCc1ccccc1 -4.35%
O=C(Nc1ccc(-c2nc3ccccc3o2)c(O)c1)c1cc(Cl)ccc1Cl -15.8% [at 11.5 µM]
O=C(NCC(c1cccnc1)N1CCc2ccccc2C1)C(=O)Nc1ccccc1F (stereo unspecified) -15.5%
CCN(C(=O)CCS(=O)(=O)c1ccc2c(c1)CCN2C(C)=O)c1cccc(C(F)(F)F)c1 -8.19%
CCN1CCc2c(sc(NC(=O)c3ccc(S(=O)(=O)N(C)C4CCCCC4)cc3)c2C(N)=O)C1 -14%
CC(=O)O[C@]1(C(C)=O)CC[C@H]2[C@@H]3C=C(Cl)C4=CC(=O)[C@@H]5C[C@@H]5[C@]4(C)[C@H]3CC[C@@]21C -6.53%
COc1cc(C(=O)N2CCNC(=O)C2CC(=O)Nc2ccc(C)c(C)c2)cc(OC)c1OC (stereo unspecified) -5.33%
Cc1ccccc1-c1nnc(SCC(=O)N(C)c2ccccc2)o1 46.6%
CCCCNc1nc2c(-c3cccc(C)c3)nnn2c2ccccc12 -14.5%
Cc1ccc(/C=C/c2onc(C)c2S(=O)(=O)N2CCC(C(=O)Nc3ccc(OC(F)(F)F)cc3)CC2)cc1 -20%
CCCN(CCC)C(=O)Cn1c(=O)n(CCCCCC(=O)Nc2ccccc2)c(=O)c2sccc21 -10.1%
COc1ccc2c(c1)c1c(c(=O)n(-c3ccccc3C)c(=O)n1CC(N)=O)n2C -5.54%
COC(=O)c1ccc(NC(=O)Cn2ccn3nc(-c4ccc(OC)cc4)cc3c2=O)cc1 34%
Cc1ccc(CNC(=O)CCc2c(C)nc3c(-c4ccc(F)cc4)c(C)nn3c2C)cc1 -13.7%
Cc1cccc(OCC(=O)Nc2cccc(C(=O)OCc3cc(=O)n4nc(C(C)C)sc4n3)c2)c1 20.1%
Cc1c(C(=O)OCc2ccccc2)[nH]c2c1C(=O)CC(c1ccc(N(C)C)cc1)C2 (stereo unspecified) -10.8%
Cc1nn2c3c(cnc2c1-c1ccc(Cl)cc1)C(=O)CC(c1ccc(C(C)C)cc1)C3 (stereo unspecified) -12%
Cc1ccc(S(=O)(=O)C(CNC(=O)COc2ccccc2)c2cccs2)cc1 (stereo unspecified) -27.9%
COC(=O)C1=C(C)NC(=O)NC1c1cn(-c2ccccc2)nc1-c1ccc(OC)c(Br)c1 (stereo unspecified) -15.5%
COc1cccc(-n2c(SCC(=O)c3ccccc3)nc3c([nH]c4ccccc43)c2=O)c1 1.91%
O=c1oc2cc(O)ccc2cc1-c1nc(-c2ccc(Cl)c(Cl)c2)cs1 -11%
COc1ccc(NC(=O)C(NC(=O)Cc2cccs2)c2ccc(OC)cc2)cc1 (stereo unspecified) -7.14%
Cn1c2c(c(=O)n(C)c1=O)C(c1cccc(O)c1)CC(=O)N2 (stereo unspecified) 6.13%
CCc1ccc(CN(C(=O)c2ccc(OC)cc2)C2CCS(=O)(=O)C2)cc1 (stereo unspecified) -20.5%
Cc1noc(C)c1S(=O)(=O)Nc1ccc(C(=O)Nc2ccc(C(C)C)cc2)cc1 -26.3%
COc1cc2c(cc1NC(=O)COc1ccc(Br)c(C)c1)oc1ccccc12 1.27%
CCC12CN3CC(CC)(CN(C1)C3c1cccc(OC)c1O)C2=O (stereo unspecified) -10.8%
COc1ccc(-c2c(C)c3ccc(O)c(CN4CCCCC4)c3oc2=O)cc1OC -14.4%
Cc1ccc2nc(N(Cc3cccnc3)C(=O)c3ccco3)sc2c1 27.9%
Cc1cccc(N2CCN(C(=O)c3cn(C)c4ccc(S(=O)(=O)N(C)C)cc4c3=O)CC2C)c1 (stereo unspecified) -0.777%
CCOC(=O)c1c(NC(=O)CCCOc2ccc(C)cc2)sc2c1CCC(C)C2 (stereo unspecified) -4.42%
CCOC(=O)Cn1c(=O)n(-c2ccccc2OC)c2nc(-c3ccccc3)nc(C(N)=O)c21 -18.5%
CCc1nnc(SCC(=O)Nc2ccc(Cl)cc2F)c2cc3occc3n12 6.72%
CCn1c(C(=O)NCc2ccc(C)cc2)cc2sc(Cl)cc21 -27.5%
CCOCCc1nn2c(=O)cc(COC(=O)COc3ccc(C)c(C)c3)nc2s1 2%
COc1cn(CC(=O)Nc2c(C)cc(C)cc2C)c(CN2CCCCC2)cc1=O -14.9%
CCc1ccc(NC(=O)CC2C(=O)NCCN2C(=O)c2ccccc2OC)cc1 (stereo unspecified) -11.6%
Cc1nc(SCc2cc(=O)c3cccc(F)c3[nH]2)n[nH]1 10%
CC(C)c1ccc(NC(=O)CSc2ncnc3c2sc2ccccc23)cc1 3.11%
Clc1cccc(CSc2nc(NCCc3ccccc3)c3ccccc3n2)c1 -2.37%
COc1ccccc1CNCc1ccc(C(=O)O)s1 -2.7%
COc1ccc(NC(=O)Cn2ncc3c(C)n(Cc4cccc(Cl)c4)c(C)c3c2=O)cc1 -2.33%
COc1c(C)cccc1C(=O)Nc1ccc(Cl)c(-c2nc3cc(C)ccc3o2)c1 -25.5%
COc1ccc(-c2nc3sc(CCNC(=O)Cc4ccc(Cl)cc4)c(C)n3n2)cc1 -18.5%
CC(C)CCOc1ccc(Cn2c(=O)sc3ccccc32)cc1 -14.5%
CCOc1ccc(CCNC(=O)CSc2nc3ccccc3nc2Cc2ccc(C)cc2)cc1OCC -9.07%
CC(=O)OC[C@H]1O[C@@H](n2ncc(=O)[nH]c2=O)[C@H](OC(C)=O)[C@@H]1OC(C)=O -22.9%
CCN(CC)c1ccc(C(=O)NCc2ccc3c(c2)CCN3C(=O)c2cccc(C)c2)cc1 -2.45%
CCN(CC)c1ccc(NC(=O)CN(C)S(=O)(=O)c2cccc3nsnc23)c(C)c1 -24.2%
CCOc1ccccc1NC(=O)Nc1ccc2nc(N3CCN(C)CC3)cc(C)c2c1 46.7%
Cc1ccccc1CN1C(=O)c2ccccc2Sc2ccc(C(=O)O)cc21 -7.08%
O=C(O)COCCN1CCN(C(c2ccccc2)c2ccc(Cl)cc2)CC1 (stereo unspecified)
Cc1ccc(CS(=O)Cc2ccc(C(=O)NCc3ccccc3Cl)o2)cc1 (stereo unspecified) -13.1%
Cc1ccc(NC(=O)C2CCCN(c3cnccn3)C2)cc1Cl (stereo unspecified) -2.71%
Nc1nnc(SCC(=O)Nc2cccc(F)c2)s1 5.8%
COc1ccccc1C(=O)Nc1cccc(OCc2cc(=O)n3c(C)csc3n2)c1 -20.8%
O=S(=O)(c1cc(Br)c(Br)s1)N1CCN(c2ccccc2)CC1 -3.05%
COc1cccc(NC(=O)CCSc2nc(-c3ccco3)cc(C(F)(F)F)n2)c1 -16.3%
CCOc1ccc(CCNC(=O)c2cc3cc4cc(OC)ccc4nc3s2)cc1OCC -14.8%
COc1ccc(-c2noc(N3CCN(c4ccc(Cl)cc4)CC3)n2)cc1OC -4.05% [at 11.5 µM]
CCc1nn2c(=O)cc(COC(=O)c3cccc(NC(=O)COc4ccccc4)c3)nc2s1 20%
CCOc1ccccc1NC(=O)C(=O)c1cc(C)n(-c2cccc(C)c2C)c1C -25.6%
CC(C)Cc1nn2c(=O)cc(COC(=O)c3ccccc3NC(=O)c3cccs3)nc2s1 -26.8%
CCc1cccc(C)c1NC(=O)C1CCN(c2nnc(C)c3c(C)n(-c4ccccc4)nc23)CC1 -19.2%
Cc1cc(C)cc(NC(=O)Cn2cc(C(=O)c3ccncc3)c(=O)c3cc(C)c(C)cc32)c1 -10.8%
COc1ccc(CNC(=O)C2CCN(S(=O)(=O)c3ccc4nc5c(c(C(=O)O)c4c3)CCCC5)CC2)cc1 -9.58%
CCCCCn1c(=O)[nH]c2cc(C(=O)N3CCN(c4cccc(Cl)c4)CC3)ccc2c1=O -13.1%
Cc1ccccc1NC(=O)c1cc2sccc2n1Cc1ccc(F)cc1 -18.7%
COc1ccc(OC)c(CNC(=O)c2cc(S(=O)(=O)N3CCC(C)CC3)cn2C)c1 -29.9%
COc1ccc(NC(=O)CCc2nc3c(C)nn(-c4ccc(C)cc4)c3n(C)c2=O)c(OC)c1 -4.23%
CCOC(=O)CCn1c(=O)c2cccn2c2cccnc21 -5.3%
CCOc1ccc(-c2c(C)nn3c(C)c(C(=O)Nc4cccc(Cl)c4C)cnc23)cc1OCC -8.3%
COCCN1Cc2cccc(C(=O)Nc3ccc(C(=O)OC)cc3)c2C1=O -0.747%
Cc1ccc(NC(=O)c2cc(S(=O)(=O)N3CCC(C)CC3)cn2C)cc1Cl -11.4%
N[C@@H]1CONC1=O
COc1ccccc1C(=O)Nc1ccc2nc(SCC(=O)N3CCCC3)sc2c1 8.63%
Cc1ccc2nc(-c3ccsc3)c(Nc3ccc(C(C)C)cc3)n2c1 0.963%
COCCNC(=O)CCCn1c(SCC(=O)c2ccc(F)cc2)nc2c(sc3ccccc32)c1=O -5.3%
Cc1ccc(NC(=O)/C(C#N)=C\c2ccc(-c3ccc(Cl)cc3)o2)c(C)c1 -0.0379%
CCN(CC)S(=O)(=O)c1ccc2c(c1)nc(CN(C)C(=O)Nc1ccc(C)c(F)c1)n2C 2.66%
CCc1ccccc1NC(=O)CN1C(=O)CCSc2ccc(S(=O)(=O)N3CCCC3)cc21 -30%
O=C(OCC1CCCO1)c1ccc2c(c1)N(Cc1ccccc1)C(=O)c1ccccc1S2(=O)=O (stereo unspecified) -1.58%
